Test results: PMC4336329 (PLoS ONE, 2015)
In all, about 310,000 compounds went through this assay and about 14,000 (4.5%) showed an effect of 50% or more. Effects have a minus sign here. The list shows a part of the results.

Each compound was assayed against human ether-à-go-go-related gene (hERG) potassium channel (human, UniProt Q12809) (assay: primary screen, population patch clamp on CHO cells stably expressing hERG).
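Also: peak tail current of the secondary pulse compared with the same well before compound.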

Chain of human ether-à-go-go-related gene (hERG) potassium channel (Q12809 whole entry, looked up): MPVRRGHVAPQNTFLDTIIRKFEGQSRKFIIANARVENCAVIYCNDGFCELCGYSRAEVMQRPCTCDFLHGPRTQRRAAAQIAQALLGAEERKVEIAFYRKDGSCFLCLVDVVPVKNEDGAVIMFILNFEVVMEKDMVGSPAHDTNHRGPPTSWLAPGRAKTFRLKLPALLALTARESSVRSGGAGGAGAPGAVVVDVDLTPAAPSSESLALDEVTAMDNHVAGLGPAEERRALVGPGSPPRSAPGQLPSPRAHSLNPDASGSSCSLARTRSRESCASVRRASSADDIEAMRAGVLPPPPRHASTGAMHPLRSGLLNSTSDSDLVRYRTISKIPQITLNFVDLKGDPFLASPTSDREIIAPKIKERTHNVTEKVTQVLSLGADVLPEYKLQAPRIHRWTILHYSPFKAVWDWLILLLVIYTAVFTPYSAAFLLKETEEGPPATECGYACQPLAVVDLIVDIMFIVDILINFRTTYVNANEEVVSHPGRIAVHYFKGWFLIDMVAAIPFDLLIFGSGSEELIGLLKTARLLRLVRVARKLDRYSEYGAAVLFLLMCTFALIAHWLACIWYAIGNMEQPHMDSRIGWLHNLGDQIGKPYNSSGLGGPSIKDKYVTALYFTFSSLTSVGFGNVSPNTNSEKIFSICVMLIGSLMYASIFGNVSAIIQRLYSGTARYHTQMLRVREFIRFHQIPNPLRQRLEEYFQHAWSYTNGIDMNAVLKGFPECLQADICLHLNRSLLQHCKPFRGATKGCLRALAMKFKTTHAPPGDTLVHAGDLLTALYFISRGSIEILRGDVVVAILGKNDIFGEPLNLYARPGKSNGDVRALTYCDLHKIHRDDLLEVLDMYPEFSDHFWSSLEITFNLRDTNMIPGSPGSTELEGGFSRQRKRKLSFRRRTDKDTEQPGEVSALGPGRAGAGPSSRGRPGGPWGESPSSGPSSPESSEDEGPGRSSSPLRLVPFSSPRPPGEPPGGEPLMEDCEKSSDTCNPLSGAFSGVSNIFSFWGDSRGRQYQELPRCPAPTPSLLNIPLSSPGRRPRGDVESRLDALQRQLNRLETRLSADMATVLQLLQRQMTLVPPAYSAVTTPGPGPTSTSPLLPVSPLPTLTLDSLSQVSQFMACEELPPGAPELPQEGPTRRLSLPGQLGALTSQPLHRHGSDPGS

SMILES | hERG current change (%, negative = inhibition) at 10uM
O=C(/C=C/c1ccc(Cl)cc1)N1CCN(c2ccc([N+](=O)[O-])c(N3CCOCC3)c2)CC1 | -72.4%
Cc1cc(C)n(CC(=O)c2cccc(N)c2)n1 | 12.8%
CCc1ccc(C(O)(CC(C)C)C(CN2CCOCC2)c2ccccc2)cc1.Cl (stereo not shown) | -1.97%
CN(C)c1ccc(C(CNC(=O)c2ccccc2F)c2c[nH]c3ccccc23)cc1 (stereo not shown) | -8.6%
Clc1ccc(C2=Nn3c(Cn4nnc5ccccc54)nnc3SC2)cc1 | 21.3%
COc1ccc(Cn2c(CCC(=O)NCc3ccco3)nc3cccnc32)cc1 | -37.6%
c1ccn2cc(-c3ccc4c(c3)OCCO4)nc2c1 | 1.08%
Oc1c(N=NC(=S)Nc2ccccc2F)c2ccccc2n1Cc1ccccc1 | 23.8%
COc1ccc2cc3[n+](cc2c1OC)CCc1cc2c(cc1-3)OCO2.Cl | 3.74%
O=C(Oc1ccc(Cl)cc1)N1CCOCC1 | 13.5%
Cc1ccc(S(=O)(=O)CCC(=O)OCC(=O)Nc2ncc(Cl)cc2Cl)cc1 | -16.2%
CC1CCCN(C(=O)CNC(=O)c2ccco2)C1 (stereo not shown) | 28.4%
COc1ccc(NC(=O)n2ncc3cc(Cl)ccc32)cc1OC | 21.3%
CCOC(=O)CC1C(=O)NCCN1S(=O)(=O)c1ccc(Cl)cc1 (stereo not shown) | -5.38%
CCCc1cc(=O)[nH]c(SCC(=O)Nc2ncc(S(=O)(=O)c3ccc([N+](=O)[O-])cc3)s2)n1 | 8.56%
CCCCNc1nc(NC)nc(Cl)c1SC | 7.51%
CC(C)n1c(C(=O)OCC(=O)NCc2ccc3c(c2)OCO3)cc2sccc21 | 18.3%
CCc1ccc(N(CC(=O)NCc2ccco2)C(=O)CCC(=O)Nc2nccs2)cc1 | 2.1%
C[N+](C)(C)CCOP(=O)([O-])OP(=O)([O-])OC[C@H]1O[C@@H](n2ccc(N)nc2=O)[C@H](O)[C@@H]1O.[Na+] | 8.86%
COC(=O)c1ccc(NC(=O)c2ccc(NC(=O)c3ccco3)cc2)cc1 | 18.4%
O=C1CN(C(=O)NCCC(=O)NC2CCCCC2)c2ccccc2N1 | -2.24%
CN1CCN(C(=O)/C=C/c2ccc(Cl)cc2)CC1 | -44.8%

SMILES | hERG current change (%, negative = inhibition) at 10uM
O=C(CSc1nc2cc(Cl)ccc2s1)c1ccco1 | 2.2%
COc1cccc(C2=CC(=O)CC(C)(C)C2)c1OC | -4.25%
COc1ccc2[nH]c(=O)c(CN(Cc3cccs3)C(=S)NCC3CCCO3)cc2c1 (stereo not shown) | -6.12%
CCc1ccc(NC(=O)N(CCN2CCOCC2)Cc2ccc3c(c2)CCCN3CC)cc1 | -31.7%
Cc1cccc([C@@H]2[C@@H]3C(=O)N(Cc4ccccc4)C(=O)[C@@H]3[C@]3(Cc4ccccc4)C(=O)N(c4ccc(C(F)(F)F)cc4)C(=O)N23)c1 | 9.93%
CCOc1ccc(NC(=O)C2CCCN2C(=O)NC2CCCCC2)cc1 (stereo not shown) | -14%
COc1ccc(S(=O)(=O)N2CCCC(C(=O)NC3CC3)C2)cc1Cl (stereo not shown) | 1.86%
CCCCc1nc(N2CCNCC2)c(C#N)c2c1CSC(C)(C)C2 | -64.7%
COc1ccc(Cl)cc1S(=O)(=O)N1CCCC(C(=O)N2CCCC2)C1 (stereo not shown) | -5.2%
Cc1noc(C)c1S(=O)(=O)N(CC(=O)NC1CCCC1)c1ccc(C(C)C)cc1 | 10.2%
COC(=O)c1c(NC(=O)c2ccco2)sc(C(=O)N(C)C)c1C | -11.1%
CC(C)n1c(NCc2ccccc2O)nc2ccccc21 | -12.2%
CCCNc1nc2c(c(=O)[nH]c(=O)n2C)n1CCC(C)C | -0.274%
OC(CN1CCOCC1)Cn1c(-c2cccc(Cl)c2)nc2ccccc21 (stereo not shown) | -21.3%
Cc1nc2ccccc2c(=O)n1/N=C/c1ccc([N+](=O)[O-])o1 | -53.3%
CC1CCN(S(=O)(=O)c2ccc(NC(=O)c3ccco3)cc2)CC1 | -10.7%
Cc1ccnc(SCCn2c(N3CC(C)OC(C)C3)nc3c2c(=O)n(C)c(=O)n3C)n1 (stereo not shown) | -8.3%
O=C1CC(C(=O)Nc2ccc(Cl)c(Cl)c2)S/C(=N\N=C\c2ccco2)N1 (stereo not shown) | 2.7%
CC(OC(=O)c1cc2ccccc2cc1O)C(=O)Nc1ccc(S(N)(=O)=O)cc1 (stereo not shown) | -11.8%
Cc1noc(C)c1S(=O)(=O)Nc1ccc(C(=O)N2CCC(C)CC2)cc1 | -4.35%
COCCN1CCn2c(nc3cc([N+](=O)[O-])ccc32)C1 | -13.2%
C=CCn1c(SCC(=O)c2c(N)n(C)c(=O)n(C)c2=O)nc2sc(C)c(C)c2c1=O | -5%

SMILES | hERG current change (%, negative = inhibition) at 10uM
CCCNC(=O)c1noc2c1CCc1ccccc1-2 | -4.93%
COc1ccc(OC)c(Nc2nc(-c3cccc([N+](=O)[O-])c3)nc3ccccc23)c1 | -0.923%
COc1ccc(Cn2c(=N)c(C(=O)NCC3CCCO3)cc3c(=O)n4ccccc4nc32)cc1 (stereo not shown) | -82.2%
Cc1ccc(S(=O)(=O)N2CCCCC2)cc1NC(=O)COC(=O)Cc1ccc(Cl)cc1 | -27.8%
COc1ccc(-c2c(C)nn3c(N4CCC(C(=O)NCCN(C)C)CC4)cc(C)nc23)cc1OC | -0.0367%
CCS(=O)(=O)c1ccc2c(c1)N(S(C)(=O)=O)CC(C(=O)NCCOC)O2 (stereo not shown) | 2.19%
O=C(NCc1ccco1)c1cc(NS(=O)(=O)c2cccc([N+](=O)[O-])c2)ccc1O | 5.88%
CCN(c1cccc(C)c1)S(=O)(=O)c1c(C)[nH]c(=O)[nH]c1=O | 5.02%
Nc1ncnc2c1nc(SCCO)n2Cc1ccccc1 | 12.5%
O=C(Oc1ccc2c3c(c(=O)oc2c1)CCCC3)c1cccs1 | -4.43%
CCCc1cc(C(=O)NC2CCCCC2)no1 | -14.2%
CCC1(C)Cc2c(C#N)c(N)n(-c3ccccc3)c(=S)c2CO1 (stereo not shown) | -2.01%
COc1ccc(NC2=C(C(C)=O)C(c3ccc4c(c3)OCO4)C(C(C)=O)C(C)(O)C2)cc1 (stereo not shown) | -1.51%
Cc1ccc(CNC(=O)C2CCN(S(=O)(=O)c3c(C)noc3C)CC2)cc1 | 8.15%
CCOc1ccc(CCNC(=O)Cn2c(=O)c3cccn3c3cccnc32)cc1 | 4.32%
COCCNC(=O)c1onc(CSc2ccc(F)c(F)c2)c1C(=O)NCCOC | -25.5%
Cc1cc(NC(=O)CSc2nc3c(c(=O)n(C)c(=O)n3C)n2C(C)C)no1 | 4.84%
CCCCN(C(=O)C(C)(C)Oc1ccc(Cl)cc1)c1c(N)n(CCC)c(=O)[nH]c1=O | 9.47%
CCc1nnc(NC(=O)CSc2nc3cc4c(cc3cc2CC)OCCO4)s1 | -9.7%
COc1ccc(S(=O)(=O)N2CCCC(C(=O)NCC3CCCO3)C2)cc1C (stereo not shown) | 0.251%
N/C(=N\S(=O)(=O)c1ccccc1)c1ccc([N+](=O)[O-])cc1 | -30%
COn1c(-c2ccccc2)nc2ccc(Cl)cc21 | -19%

SMILES | hERG current change (%, negative = inhibition) at 10uM
COc1ccc(S(=O)(=O)N2CCN=C2SCc2cccc(F)c2)cc1 | 5.41%
CC(=O)Nc1ccc(S(=O)(=O)NC2(C(F)(F)F)C(=O)Nc3c2c(=O)[nH]c(=O)n3Cc2ccccc2)cc1 (stereo not shown) | 4.59%
CCN(c1ccccc1)S(=O)(=O)c1ccc2c(c1)N(C(C)=O)CCO2 | -4.11%
Cc1cc(C(=O)N2CCN(C/C=C/c3ccccc3)CC2)cs1 | -34.5%
CC(C(=O)NC1CC(C)(C)NC(C)(C)C1)c1ccc([N+](=O)[O-])cc1 (stereo not shown) | 9.86%
O=C(OCC(=O)N1CCN(C(=O)c2ccco2)CC1)c1ccccc1OCc1ccccc1 | -43.3%
CC(=O)Nc1ccc(C(C#N)c2ccccc2)cc1 (stereo not shown) | 1.6%
CCCN1CCN(C(=O)c2noc3c2COc2ccc(C)cc2-3)CC1 | -8.37%
COc1ccccc1NS(=O)(=O)c1cc(NC(=O)C2=NNC(=O)CC2)ccc1C | -5.66%
Cc1nn2c(=O)cc(CSc3ccccc3NC(=O)c3ccccc3)nc2s1 | -4.63%
CCOC(=O)c1sc(-c2ccccc2)cc1N | 20.8%
Cc1nc2ccccc2c(=O)n1-c1ccccc1[N+](=O)[O-] | 17.2%
CCOc1ccc2c(c1)c(N=NC(N)=S)c(O)n2C | 1.21%
CCCN(CCC)C(=O)CSc1nc2ccsc2c(=O)n1NC(=O)c1ccccc1 | -16.1%
COC(=O)C(O)(NC(=O)OCc1ccccc1)C(F)(F)F (stereo not shown) | 1.32%
CNS(=O)(=O)c1ccc(NC(=S)Nc2ccc3c(c2)OCO3)cc1 | 8.16%
Cc1ccc(C)c(N2C(=O)CC(N3CCN(Cc4ccc5c(c4)OCO5)CC3)C2=O)c1 (stereo not shown) | -43.4%
CCCC1=[N+](CC(=O)c2ccccc2)CCn2c(C)ccc21.[Br-] | 2.56%
COCCOC(=O)c1[nH]c2c(c1C)C(=O)CC(c1cc(OC)c(OC)c(OC)c1)C2 (stereo not shown) | -2.61%
